# Experimental data from PubChem BioAssay AID588855 (National Center for Advancing Translational Sciences (NCATS), 2011).
# Several values for one entry are separate records, joined by “and”; a condition that tells them apart may be missing. Identical values can stand only once. About 5,000 (1.2%) of roughly 410,000 compounds were called active. Inconclusive means that the source gave no clear call. Such entries were picked first, then a sample of the others. The call rests on the fitted dose curve; in most records, active means well fitted inhibition curve with a large enough effect; inconclusive means small, poorly fitted or top-dose-only effect; inactive means no such curve, though single readings can be large or run the other way. Where the call is inconclusive, the potency comes from a doubtful curve fit.
# Test: qHTS for Inhibitors of TGF-b; further: nearly all actives have a fitted effect of over 65% in size
# Details: HepG2 CAGA-GFP TGF-b/SMAD3 reporter, GFP fluorescence, 18 h, TGF-beta stimulated, 500 pg/mL final; series mostly up to 46.1 µM
# Procedure, shortened: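 HEPG2 CAGA-GFP reporter cells (1000/well, DMEM with 1% FBS) received compounds, then recombinant TGF-beta at 500 pg/mL final for 18 hours at 37 degrees C. Per-cell GFP summed per well was normalised to unstimulated and stimulated DMSO controls before curve fitting.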
# Potency means the concentration at half of the fitted maximal effect; tags describe the fitted curve by direction and shape.
row,SMILES,Potency
1,CCSc1cc(N2CC(C)OC(C)C2)nc(-c2ccccc2Cl)n1 (stereo not drawn),inactive
2,COc1ccc(-c2cc(C(=O)c3c(N)n(C)c(=O)n(C)c3=O)c3ccccc3n2)cc1,"inconclusive: 35.5 µM [inhibitor, single point]"
3,COc1ccc(CCN(CC(=O)NC2CCCC2)C(=O)Cn2nnc(-c3ccc(C)o3)n2)cc1OC,"inconclusive: 0.447 µM [inhibitor, full curve, poor fit]"
4,Cc1cc2c(n1-c1ccc(C(=O)NCCc3ccccc3)cc1)CCC(C)C2 (stereo not drawn),"inconclusive: 31.6 µM [inhibitor, single point]"
5,CC(C)N1CCc2c(sc(NC(=O)c3cc4cc([N+](=O)[O-])ccc4s3)c2C(N)=O)C1,"inconclusive: 35.5 µM [inhibitor, single point]"
6,O=C(c1ccc(Cl)cc1)N1N=C(c2ccccn2)CC1(O)C(F)(F)F (stereo not drawn),"inconclusive: 35.5 µM [inhibitor, single point]"
7,O=C1c2ccccc2NC(c2ccc(-c3ccc(C(F)(F)F)cc3)o2)N1O (stereo not drawn),"inconclusive: 11.2 µM [inhibitor, partial curve, poor fit]"
8,CCc1ccc(CN(C)C(=O)CCc2nnc(-c3ccc(-c4ccccc4)cc3)o2)nc1,"inconclusive: 11.2 µM [inhibitor, partial curve, poor fit]"
9,C=C1C(=O)OC2CC1C(O)CC(C)=CCCC(C)=CC(O)CC2C (stereo not drawn),active: 11.2 µM
10,COc1ccccc1NS(=O)(=O)c1cccc(C(=O)N/N=C(/C)c2ccc(-n3ccnc3)cc2)c1,"inconclusive: 0.631 µM [inhibitor, full curve, poor fit]"
11,CC(C)c1cc(-c2nc(-c3ccc(Br)cc3)no2)n[nH]1,"inconclusive: 14.1 µM [inhibitor, partial curve, poor fit]"
12,Cc1cc(C)nc(NS(=O)(=O)c2ccc(NC(=O)CN3C(=O)S/C(=C\c4ccccc4)C3=O)cc2)n1,"inconclusive: 35.5 µM [inhibitor, single point]"
13,COCCNC(=O)C1(C)CCCN(CCC(=O)c2ccc(Br)cc2)C1 (stereo not drawn),active: 15.8 µM
14,CCCCn1c(N2CCC(Cc3ccccc3)CC2)nc2c1c(=O)[nH]c(=O)n2C,"inconclusive: 22.4 µM [inhibitor, single point]"
15,Cc1ccc(S(=O)(=O)/N=C(/c2ccccc2)N(C)c2ccc(O)cc2)cc1,"inconclusive: 35.5 µM [inhibitor, single point]"
16,Cc1ccc(O)c(NC(=O)c2ccco2)c1,inactive
17,Cc1ccc(C(=O)NC2CCCCCCC2)cc1S(=O)(=O)N1CCOCC1,"inconclusive: 35.5 µM [inhibitor, single point]"
18,C[C@@H]1CN([C@H](C)CO)C(=O)CCCn2cc(nn2)CO[C@H]1CN(C)C(=O)Nc1ccccc1F,inactive
19,C=C(C)C1Cc2c(C)nn(-c3nc(C)cc(C)n3)c2C1 (stereo not drawn),"inconclusive: 6.31 µM [inhibitor, single point]"
20,C/C(=N\NC(=S)Nc1ccc(F)cc1)C1CC1,"inconclusive: 35.5 µM [inhibitor, single point]"
21,COc1ccc(C(CNC(=O)c2oc3ccccc3c2C)N2CCCCC2)cc1 (stereo not drawn),inactive

row,SMILES,Potency
1,COc1ccc(S(=O)(=O)N(CC(=O)NC2CCCCC2)c2ccc(F)cc2)cc1,inactive
2,Cc1ccc(S(=O)(=O)Nc2ccc(-n3cnnn3)cc2)cc1,inactive
3,CCC(Cc1ccccc1)NS(=O)(=O)c1ccc2c(c1)NC(=O)C(C)S2 (stereo not drawn),"inconclusive: 11.2 µM [inhibitor, partial curve]"
4,CC1=CC(=NOC(=O)/C=C/c2ccccc2)C=C(C)C1=O,"inconclusive: 20 µM [inhibitor, single point]"
5,CC(O)(c1cccc(F)c1)c1nc(-c2cc3ccccc3o2)cs1 (stereo not drawn),"inconclusive: 15.8 µM [inhibitor, partial curve, poor fit]"
6,CCOC(=O)N1CCN(C/C(C)=C/c2ccccc2)CC1,inactive
7,Cc1ccc(C(=O)N2CC(=O)Nc3ccc(Br)cc3C2c2ccc(F)cc2)cc1C (stereo not drawn),"inconclusive: 35.5 µM [inhibitor, single point]"
8,C=CCn1c(SCc2ccc(Br)cc2F)nc2cc(C(=O)O)ccc2c1=O,inactive
9,COc1ccc(CNCCc2ccc(Cl)cc2)cc1OCc1ccccc1,"inconclusive: 17.8 µM [inhibitor, single point]"
10,NC(=O)CC(NC(=O)c1ccccc1)c1ccc(N2CCN(c3ccccn3)CC2)c([N+](=O)[O-])c1 (stereo not drawn),"inconclusive: 25.1 µM [inhibitor, partial curve, poor fit]"
11,O=C(NCCCN1CCOCC1)c1cc(Cl)ccc1OCc1ccccc1,"inconclusive: 35.5 µM [inhibitor, single point]"
12,CCOc1ccc(CNC(=O)CCCn2nc(C)c3c(C)n(-c4ccc(C)cc4)nc3c2=O)cc1,"inconclusive: 0.447 µM [inhibitor, full curve, poor fit]"
13,CN(CC(=O)NC(=O)NCc1ccco1)Cc1nc2ccccc2c(=O)[nH]1,"inconclusive: 3.98 µM [inhibitor, full curve, poor fit]"
14,Cc1onc(C(=O)NCc2ccccn2)c1[N+](=O)[O-],inactive
15,O=C(NC(=S)N1CCN(Cc2ccc3c(c2)OCO3)CC1)c1cccc(Br)c1,"inconclusive: 35.5 µM [inhibitor, single point]"
16,CC(C)(C)OC(=O)C[C@H]1C/C=C\C[C@@H](CC(=O)N(CCO)Cc2ccccc2)C(=O)NC[C@@H](c2ccccc2)OC1=O,"inconclusive: 35.5 µM [inhibitor, single point]"
17,CC(C)c1ccc(-c2nn(-c3ccccc3)cc2C2C(C#N)=C(N)OC3=C2C(=O)CC(C)(C)C3)cc1 (stereo not drawn),"inconclusive: 17.8 µM [inhibitor, single point]"
18,Cc1cc(Cl)ccc1OCC(O)CNCCc1ccc(S(N)(=O)=O)cc1 (stereo not drawn),"inconclusive: 35.5 µM [inhibitor, single point]"
19,COC(=O)c1cc(=O)nc2sccn12,"inconclusive: 2.24 µM [inhibitor, partial curve]"
20,OCCN(Cc1ccccc1)C(=S)Nc1ccc(F)cc1,inactive
21,CS(=O)(=O)c1ncc(N(Cc2ccco2)Cc2cccs2)c(C(=O)Nc2ccccc2F)n1,"inconclusive: 22.4 µM [inhibitor, partial curve, poor fit]"

row,SMILES,Potency
1,COc1ccccc1NS(=O)(=O)c1cc(NC(=O)c2ccccc2C)ccc1N1CCOCC1,"inconclusive: 6.31 µM [inhibitor, single point]"
2,C[C@H](CO)N1C[C@H](C)[C@@H](CN(C)Cc2ccc(Cl)c(Cl)c2)Oc2c(NC(=O)CCC(F)(F)F)cccc2C1=O,active: 12.6 µM
3,Cc1cc(-n2c(SCc3ccccc3F)nc3[nH]ncc3c2=O)ccc1Cl,"inconclusive: 35.5 µM [inhibitor, single point]"
4,COC(=O)c1ccc2nc(-c3ccc(F)cc3)c(Cc3ccsc3)n2c1,"inconclusive: 35.5 µM [inhibitor, single point]"
5,CCCCCCCCCCCCCCCC[N+](C)(C)CC,"inconclusive: 35.5 µM [inhibitor, single point]"
6,Cc1cc(Cl)ccc1NC(=O)C1CCCN1S(=O)(=O)c1ccc2c(c1)CCCC(=O)N2 (stereo not drawn),"inconclusive: 14.1 µM [inhibitor, partial curve, poor fit]"
7,Cc1ccc(-c2noc(-c3ccc(NC4CCCC4)c([N+](=O)[O-])c3)n2)cc1,"inconclusive: 6.31 µM [inhibitor, single point]"
8,Cc1cccc(OCC(=O)Nc2nnc(S(=O)(=O)N3CCCCCC3)s2)c1,"inconclusive: 35.5 µM [inhibitor, single point]"
9,COC(=O)[C@]1(C)CCC[C@@]2(C)C3CC[C@@]4(C)C[C@]3(CC[C@H]12)C[C@H]4O (stereo partly drawn),"inconclusive: 20 µM [inhibitor, single point]"
10,CS(=O)(=O)c1ncc(Cl)c(C(=O)N(Cc2ccc(Cl)cc2)Cc2ccco2)n1,active: 5.01 µM
11,O=C(NCC1CCCO1)c1cc2c(s1)CS(=O)(=O)C2 (stereo not drawn),"inconclusive: 5.62 µM [inhibitor, single point]"
12,Cc1ccc(-n2nc(C(=O)NC(C)C)c(=O)n(C)c2=O)cc1,inactive
13,O=C(c1ccc(-c2cccc(C(F)(F)F)c2)o1)N1CCCCCCC1,"inconclusive: 35.5 µM [inhibitor, partial curve, poor fit]"
14,Cc1cc(OCCCCCN2CCCC2)ccc1Cl,"inconclusive: 15.8 µM [inhibitor, single point]"
15,Cc1ccc(S(=O)(=O)N2Cc3ccccc3CC2C(=O)NC(C)(C)C)cc1 (stereo not drawn),"inconclusive: 35.5 µM [inhibitor, partial curve, poor fit]"
16,CCc1nnc(N/N=C/c2ccc(O)c(OC)c2)n1N,active: 17.8 µM
17,Cc1ccccc1NC(=S)NC(C)CCc1ccccc1 (stereo not drawn),inactive
18,Cc1ccc(CN2C(=O)C(CC(C)C)Nc3ncnc(N4CCN(c5ccccc5)CC4)c32)cc1 (stereo not drawn),"inconclusive: 10 µM [inhibitor, partial curve] and inconclusive: 11.2 µM [inhibitor, partial curve, poor fit]"
19,COc1cc(C(=O)Nc2sc3c(c2C#N)CCCC3)c(Br)c(OC)c1OC,inactive
20,O=C(c1ccccc1F)N1CCN(c2ccc([N+](=O)[O-])c(NCC3CCCO3)c2)CC1 (stereo not drawn),"inconclusive: 6.31 µM [inhibitor, partial curve, poor fit]"
21,Clc1cc(Cl)c(OCc2nc(-c3ccccn3)no2)cc1Cl,"inconclusive: 35.5 µM [inhibitor, single point]"
